The values that follow come from patent publication US20030027764A1.

The assay has as its target Bee venom (Apis melifera) PLA2 (Apis mellifera) (UniProt P00630). Briefly: cell-based or functional assay.

Consider “recombinant Python Antitoxic Factor (PAF), later renamed Phospholipase Inhibitor from Python (PIP), (from UniProt Q9I8P7 20-201)”, for which the % Inhibition (mean) of paw oedema; Bee venom PLA2 (1 µg) + PAF (50 µg) was found to be 36.8% and the % Inhibition (mean) of paw oedema; Bee venom PLA2 (1 µg) + PAF (100 µg) amounted to 78.2%.
